# Data published in the supplement of paper PMC10037445.
# Where “and” joins values, the source holds several entries; their conditions need not be identical. Equal entries are not always repeated. Over roughly 2,900 compounds, “NF-kB SEAP reporter activity, fold change vs agonist alone” has its median near 0.99; the highest 2% begin near 2.6. This is one part of the list.
# Legend:
# RAW-Dual [1] = assay: NF-kB SEAP reporter activity, fold change vs agonist alone; higher = enhanced NF-kB activity
# In short: (§1)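 RAW-Dual macrophages were seeded in DMEM at 50,000 cells/well in 384-well plates, given 50 nL of library stock by pin tool, and given a PRR agonist 1 h later. Plates were held at 37 °C, 5% CO2 for 20 hours, after which supernatant was read for IRF by QuantiLuc luminescence and for NF-κB by QuantiBlue absorbance at 620 nm. Reporter activity is expressed as fold change over wells that received agonist alone. A well was called cytotoxic when IncuCyte confluency fell below 70% of agonist controls in both mask sets.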
# RAW-Dual [2] = assay: NF-kB SEAP reporter activity, fold change vs agonist alone; cytotoxicity flag (confluency mask): not cytotoxic; higher = enhanced NF-kB activity
# In short: as §1
# RAW-Dual [3] = assay: NF-kB SEAP reporter activity, fold change vs agonist alone; cytotoxicity flag (confluency mask): cytotoxic (confluency <70% of control); higher = enhanced NF-kB activity
# In short: as §1
# [4] = library stock concentration (final ~1000-fold dilution): 10 mM, cytotoxicity flag (confluency mask): not cytotoxic, agonist: Imiquimod (TLR7) […]
# [5] = library stock concentration (final ~1000-fold dilution): 10 mM, cytotoxicity flag (confluency mask): not cytotoxic, agonist: MPLA (TLR4) […]
# [6] = agonist: ODN 1826 (TLR9) 0.5 ug/mL
# [7] = agonist: Pam2CSK4 (TLR2/6) 0.1 ug/mL
# [8] = agonist: Pam3CSK4 (TLR2/1) 0.1 ug/mL
# [9] = library stock concentration (final ~1000-fold dilution): 10 mM, cytotoxicity flag (confluency mask): cytotoxic (confluency <70% of control), agonist: Imiquimod (TLR7) […]
# [10] = library stock concentration (final ~1000-fold dilution): 10 mM, cytotoxicity flag (confluency mask): cytotoxic (confluency <70% of control), agonist: MPLA (TLR4) […]
structure (smiles),measurement,setting,value
CCNC1=NC2C(OC(CO)C(O)C2O)S1 (centres undefined),NF-kB SEAP reporter activity,RAW-Dual [1]; [4],1
same,NF-kB SEAP reporter activity,RAW-Dual [1]; [5],1.17
CCNC1=NC2C(OC(CO)C(O)C2O)S1 (centres undefined) (library stock concentration (final ~1000-fold dilution): 10 mM),NF-kB SEAP reporter activity,RAW-Dual [2]; agonist: LPS (TLR4) 0.1 ug/mL,1.15
same,NF-kB SEAP reporter activity,RAW-Dual [2]; [6],1.17
same,NF-kB SEAP reporter activity,RAW-Dual [2]; [7],1.04
same,NF-kB SEAP reporter activity,RAW-Dual [2]; [8],1.5
CC/C(=C(\c1ccccc1)c1ccc(OCCN(C)C)cc1)c1ccccc1.O=C(O)CC(O)(CC(=O)O)C(=O)O,NF-kB SEAP reporter activity,RAW-Dual [1]; [9],1.37
same,NF-kB SEAP reporter activity,RAW-Dual [1]; [10],1.38
CC/C(=C(\c1ccccc1)c1ccc(OCCN(C)C)cc1)c1ccccc1.O=C(O)CC(O)(CC(=O)O)C(=O)O (library stock concentration (final ~1000-fold dilution): 10 mM),NF-kB SEAP reporter activity,RAW-Dual [3]; agonist: LPS (TLR4) 0.1 ug/mL,0.402
same,NF-kB SEAP reporter activity,RAW-Dual [3]; [6],0.692
same,NF-kB SEAP reporter activity,RAW-Dual [3]; [7],0.294
same,NF-kB SEAP reporter activity,RAW-Dual [3]; [8],0.69
CCn1cc(-c2cccc(C(F)(F)F)c2)c2sc(C(=N)NC3CCS(=O)(=O)CC3)cc2c1=O (library stock concentration (final ~1000-fold dilution): 10 mM),NF-kB SEAP reporter activity,RAW-Dual [3]; agonist: LPS (TLR4) 0.1 ug/mL,3.13
same,NF-kB SEAP reporter activity,RAW-Dual [3]; [6],0.721
same,NF-kB SEAP reporter activity,RAW-Dual [3]; [7],1.15
same,NF-kB SEAP reporter activity,RAW-Dual [3]; [8],1.12
CCn1cc(-c2cccc(C(F)(F)F)c2)c2sc(C(=N)NC3CCS(=O)(=O)CC3)cc2c1=O,NF-kB SEAP reporter activity,RAW-Dual [1]; [9],1.33
same,NF-kB SEAP reporter activity,RAW-Dual [1]; [10],2.16
Cn1c(=O)cc(N2CCCC(N)C2)n(Cc2ccccc2C#N)c1=O (centres undefined),NF-kB SEAP reporter activity,RAW-Dual [1]; [4],1.08
Cn1c(=O)cc(N2CCCC(N)C2)n(Cc2ccccc2C#N)c1=O (centres undefined) (library stock concentration (final ~1000-fold dilution): 10 mM),NF-kB SEAP reporter activity,RAW-Dual [2]; agonist: LPS (TLR4) 0.1 ug/mL,1.04 and 1.31
same,NF-kB SEAP reporter activity,RAW-Dual [2]; [6],0.953 and 1.01
same,NF-kB SEAP reporter activity,RAW-Dual [2]; [7],1.16 and 1.1
same,NF-kB SEAP reporter activity,RAW-Dual [2]; [8],0.92 and 1.24
CC(C)c1c(C(=O)Nc2ccccc2)c(-c2ccccc2)c(-c2ccc(F)cc2)n1CCC(O)CC(O)CC(=O)O (centres undefined) (library stock concentration (final ~1000-fold dilution): 10 mM),NF-kB SEAP reporter activity,RAW-Dual [2]; agonist: LPS (TLR4) 0.1 ug/mL,2.93
Cc1ccccc1C(OCCN(C)C)c1ccccc1.O=C(O)CC(O)(CC(=O)O)C(=O)O (centres undefined) (library stock concentration (final ~1000-fold dilution): 10 mM),NF-kB SEAP reporter activity,RAW-Dual [2]; agonist: LPS (TLR4) 0.1 ug/mL,1.42
same,NF-kB SEAP reporter activity,RAW-Dual [2]; [6],0.679
same,NF-kB SEAP reporter activity,RAW-Dual [2]; [7],0.926
same,NF-kB SEAP reporter activity,RAW-Dual [2]; [8],1.17
Cc1ccccc1C(OCCN(C)C)c1ccccc1.O=C(O)CC(O)(CC(=O)O)C(=O)O (centres undefined),NF-kB SEAP reporter activity,RAW-Dual [1]; [4],1.41
same,NF-kB SEAP reporter activity,RAW-Dual [1]; [5],1.16
O=C(O)C=Cc1ccc(Cn2ccnc2)cc1 (library stock concentration (final ~1000-fold dilution): 10 mM water),NF-kB SEAP reporter activity,RAW-Dual [2]; agonist: LPS (TLR4) 0.1 ug/mL,1.17
same,NF-kB SEAP reporter activity,RAW-Dual [2]; [6],1.14
same,NF-kB SEAP reporter activity,RAW-Dual [2]; [7],1.11
same,NF-kB SEAP reporter activity,RAW-Dual [2]; [8],1.03
O=C(O)C=Cc1ccc(Cn2ccnc2)cc1,NF-kB SEAP reporter activity,"RAW-Dual [1]; library stock concentration (final ~1000-fold dilution): 10 mM water, cytotoxicity flag (confluency mask): not cytotoxic, agonist: MPLA (TLR4) […]",1.08
CC(=O)Nc1nc(C)c(-c2ccc(Cl)c(S(=O)(=O)NCCO)c2)s1,NF-kB SEAP reporter activity,RAW-Dual [1]; [4],0.591
same,NF-kB SEAP reporter activity,RAW-Dual [1]; [5],1.4
CC(=O)Nc1nc(C)c(-c2ccc(Cl)c(S(=O)(=O)NCCO)c2)s1 (library stock concentration (final ~1000-fold dilution): 10 mM),NF-kB SEAP reporter activity,RAW-Dual [2]; agonist: LPS (TLR4) 0.1 ug/mL,1.28
same,NF-kB SEAP reporter activity,RAW-Dual [2]; [6],0.966
same,NF-kB SEAP reporter activity,RAW-Dual [2]; [7],1.17
same,NF-kB SEAP reporter activity,RAW-Dual [2]; [8],0.961
Cl.OC(c1cc(C(F)(F)F)nc2c(C(F)(F)F)cccc12)C1CCCCN1 (centres undefined),NF-kB SEAP reporter activity,RAW-Dual [1]; [9],1.59
same,NF-kB SEAP reporter activity,RAW-Dual [1]; [10],1.64
Cl.OC(c1cc(C(F)(F)F)nc2c(C(F)(F)F)cccc12)C1CCCCN1 (centres undefined) (library stock concentration (final ~1000-fold dilution): 10 mM),NF-kB SEAP reporter activity,RAW-Dual [3]; agonist: LPS (TLR4) 0.1 ug/mL,1.77
same,NF-kB SEAP reporter activity,RAW-Dual [3]; [6],0.91
same,NF-kB SEAP reporter activity,RAW-Dual [3]; [7],0.367
same,NF-kB SEAP reporter activity,RAW-Dual [3]; [8],0.47
CCC(Nc1ncnc2[nH]cnc12)c1nc2cccc(F)c2c(=O)n1-c1ccccc1 (centres undefined) (library stock concentration (final ~1000-fold dilution): 10 mM),NF-kB SEAP reporter activity,RAW-Dual [2]; agonist: LPS (TLR4) 0.1 ug/mL,1.27
same,NF-kB SEAP reporter activity,RAW-Dual [2]; [6],1.08
same,NF-kB SEAP reporter activity,RAW-Dual [2]; [7],0.969
same,NF-kB SEAP reporter activity,RAW-Dual [2]; [8],0.843
CCC(Nc1ncnc2[nH]cnc12)c1nc2cccc(F)c2c(=O)n1-c1ccccc1 (centres undefined),NF-kB SEAP reporter activity,RAW-Dual [1]; [4],0.75
same,NF-kB SEAP reporter activity,RAW-Dual [1]; [5],0.952
O=c1c(O)c(-c2ccc(O)cc2O)oc2cc(O)cc(O)c12 (library stock concentration (final ~1000-fold dilution): 10 mM),NF-kB SEAP reporter activity,RAW-Dual [2]; agonist: LPS (TLR4) 0.1 ug/mL,1.18
same,NF-kB SEAP reporter activity,RAW-Dual [2]; [6],0.643
same,NF-kB SEAP reporter activity,RAW-Dual [2]; [7],0.838
same,NF-kB SEAP reporter activity,RAW-Dual [2]; [8],0.844
O=c1c(O)c(-c2ccc(O)cc2O)oc2cc(O)cc(O)c12,NF-kB SEAP reporter activity,RAW-Dual [1]; [4],0.865
same,NF-kB SEAP reporter activity,RAW-Dual [1]; [5],1.34
COc1ccc(C2CNC(=O)C2)cc1OC1CCCC1 (centres undefined),NF-kB SEAP reporter activity,RAW-Dual [1]; [4],1.43
same,NF-kB SEAP reporter activity,RAW-Dual [1]; [5],1.15
COc1ccc(C2CNC(=O)C2)cc1OC1CCCC1 (centres undefined) (library stock concentration (final ~1000-fold dilution): 10 mM),NF-kB SEAP reporter activity,RAW-Dual [2]; agonist: LPS (TLR4) 0.1 ug/mL,1.54
same,NF-kB SEAP reporter activity,RAW-Dual [2]; [6],2.26
same,NF-kB SEAP reporter activity,RAW-Dual [2]; [7],1.27
same,NF-kB SEAP reporter activity,RAW-Dual [2]; [8],1.45
C=CC(=O)Nc1cc(Nc2nccc(-c3cn(C4CC4)c4ccccc34)n2)c(OC)cc1N(C)CCN(C)C (library stock concentration (final ~1000-fold dilution): 10 mM),NF-kB SEAP reporter activity,RAW-Dual [3]; agonist: LPS (TLR4) 0.1 ug/mL,0.44
same,NF-kB SEAP reporter activity,RAW-Dual [3]; [6],0.185
same,NF-kB SEAP reporter activity,RAW-Dual [3]; [7],0.127
same,NF-kB SEAP reporter activity,RAW-Dual [3]; [8],0.16
C=CC(=O)Nc1cc(Nc2nccc(-c3cn(C4CC4)c4ccccc34)n2)c(OC)cc1N(C)CCN(C)C,NF-kB SEAP reporter activity,RAW-Dual [1]; [9],0.36
same,NF-kB SEAP reporter activity,RAW-Dual [1]; [10],0.368
COc1ccc(F)c(F)c1C(=O)c1cnc(NC2CCN(S(C)(=O)=O)CC2)nc1N (library stock concentration (final ~1000-fold dilution): 10 mM),NF-kB SEAP reporter activity,RAW-Dual [2]; agonist: LPS (TLR4) 0.1 ug/mL,0.194
same,NF-kB SEAP reporter activity,RAW-Dual [2]; [6],0.985
same,NF-kB SEAP reporter activity,RAW-Dual [2]; [7],0.0957
same,NF-kB SEAP reporter activity,RAW-Dual [2]; [8],1.16
COc1ccc(F)c(F)c1C(=O)c1cnc(NC2CCN(S(C)(=O)=O)CC2)nc1N,NF-kB SEAP reporter activity,RAW-Dual [1]; [4],0.977
same,NF-kB SEAP reporter activity,RAW-Dual [1]; [5],0.905
Cc1ccc(C(C)C)cc1O,NF-kB SEAP reporter activity,RAW-Dual [1]; [4],1.06
same,NF-kB SEAP reporter activity,RAW-Dual [1]; [5],1.17
